{"source": "PubChem BioAssay AID504333", "about": "(National Center for Advancing Translational Sciences (NCATS), 2011)", "note": "The whole screen tested about 360,000 compounds, of which about 16,000 (4.4%) were called active. Inconclusive means that the source gave no clear call. Such entries were picked first, then a sample of the others. The call rests on the fitted dose curve; in most records, active means well fitted inhibition curve with a large enough effect; inconclusive means small, poorly fitted or top-dose-only effect; inactive means no such curve, though single readings can be large or run the other way. A potency beside an inconclusive call is a rough fit, not a confirmed value. On the % scale 0 is the no-effect control and ±100 the full control effect; potency means the concentration at half of the fitted maximal effect; tags describe the fitted curve by direction and shape.", "data": [{"biological_target": "Bromodomain adjacent to zinc finger domain protein 2B (Homo sapiens) (UniProt Q9UIF8)", "sequence (Q9UIF8 whole entry, looked up, the tested form may be a part)": "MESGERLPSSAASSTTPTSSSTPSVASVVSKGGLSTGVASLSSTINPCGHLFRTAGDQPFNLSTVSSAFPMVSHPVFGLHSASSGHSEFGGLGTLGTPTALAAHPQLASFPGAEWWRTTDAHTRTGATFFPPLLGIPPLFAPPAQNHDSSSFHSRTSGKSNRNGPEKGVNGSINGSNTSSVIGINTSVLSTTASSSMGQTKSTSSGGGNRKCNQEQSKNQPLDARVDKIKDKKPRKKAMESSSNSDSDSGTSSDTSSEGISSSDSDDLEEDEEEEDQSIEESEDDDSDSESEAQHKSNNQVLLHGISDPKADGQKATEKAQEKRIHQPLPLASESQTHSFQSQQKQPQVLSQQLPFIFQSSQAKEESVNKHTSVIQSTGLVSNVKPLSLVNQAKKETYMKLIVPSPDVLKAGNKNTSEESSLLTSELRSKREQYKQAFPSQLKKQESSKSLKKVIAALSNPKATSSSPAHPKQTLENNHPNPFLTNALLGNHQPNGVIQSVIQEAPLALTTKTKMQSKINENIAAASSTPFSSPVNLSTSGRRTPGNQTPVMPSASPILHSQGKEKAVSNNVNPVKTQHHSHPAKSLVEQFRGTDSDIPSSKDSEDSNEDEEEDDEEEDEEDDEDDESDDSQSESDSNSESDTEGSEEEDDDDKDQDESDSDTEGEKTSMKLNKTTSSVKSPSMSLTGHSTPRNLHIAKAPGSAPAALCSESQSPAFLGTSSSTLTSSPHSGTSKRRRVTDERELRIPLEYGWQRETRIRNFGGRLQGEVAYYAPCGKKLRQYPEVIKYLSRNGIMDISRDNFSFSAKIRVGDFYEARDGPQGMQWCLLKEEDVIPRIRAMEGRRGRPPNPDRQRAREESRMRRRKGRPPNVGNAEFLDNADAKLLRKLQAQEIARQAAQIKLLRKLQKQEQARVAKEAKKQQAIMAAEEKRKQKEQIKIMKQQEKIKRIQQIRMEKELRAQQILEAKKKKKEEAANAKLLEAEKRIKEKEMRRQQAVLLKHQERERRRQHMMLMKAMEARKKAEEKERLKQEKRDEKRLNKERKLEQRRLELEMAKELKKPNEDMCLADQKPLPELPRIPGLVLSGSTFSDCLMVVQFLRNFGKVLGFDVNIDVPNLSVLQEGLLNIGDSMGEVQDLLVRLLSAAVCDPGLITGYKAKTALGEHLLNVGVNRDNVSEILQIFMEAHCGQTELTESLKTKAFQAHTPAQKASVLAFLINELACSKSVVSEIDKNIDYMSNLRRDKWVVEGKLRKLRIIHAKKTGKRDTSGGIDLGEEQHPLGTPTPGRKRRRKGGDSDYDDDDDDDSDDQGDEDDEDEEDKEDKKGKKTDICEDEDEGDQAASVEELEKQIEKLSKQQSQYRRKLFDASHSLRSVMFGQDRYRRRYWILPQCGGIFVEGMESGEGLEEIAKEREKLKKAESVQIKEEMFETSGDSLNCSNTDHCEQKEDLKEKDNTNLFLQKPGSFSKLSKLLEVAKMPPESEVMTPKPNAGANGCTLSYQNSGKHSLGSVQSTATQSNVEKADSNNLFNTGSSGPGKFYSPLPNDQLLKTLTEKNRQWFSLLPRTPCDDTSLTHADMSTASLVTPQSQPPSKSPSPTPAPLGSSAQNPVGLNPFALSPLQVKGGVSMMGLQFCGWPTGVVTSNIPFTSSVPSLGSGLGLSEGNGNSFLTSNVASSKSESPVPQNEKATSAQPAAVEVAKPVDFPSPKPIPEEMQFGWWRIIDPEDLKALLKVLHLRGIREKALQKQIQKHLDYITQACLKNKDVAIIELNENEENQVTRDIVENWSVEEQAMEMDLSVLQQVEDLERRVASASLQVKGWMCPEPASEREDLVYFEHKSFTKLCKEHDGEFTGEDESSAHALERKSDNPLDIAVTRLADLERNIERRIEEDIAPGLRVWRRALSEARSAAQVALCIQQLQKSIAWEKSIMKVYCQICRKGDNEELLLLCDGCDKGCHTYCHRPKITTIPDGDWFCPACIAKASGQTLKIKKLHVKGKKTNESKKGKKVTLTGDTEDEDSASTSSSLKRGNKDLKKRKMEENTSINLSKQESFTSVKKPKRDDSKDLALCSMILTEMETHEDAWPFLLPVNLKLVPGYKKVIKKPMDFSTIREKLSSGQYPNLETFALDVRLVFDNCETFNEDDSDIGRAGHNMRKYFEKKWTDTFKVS", "test": "qHTS Assay for Inhibitors of BAZ2B; further: nearly all actives have a fitted effect of over 60% in size", "conditions": "AlphaScreen BAZ2B-H3K14Ac peptide displacement; activity change, negative = inhibition: at 114 µM (top of the series) unless noted", "procedure,_shortened": "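AlphaScreen displacement of biotin-H3(5-23)K14Ac peptide (50 nM final) from BAZ2B (50 nM final) in PBS pH 7.4, 0.01% Tween-20; complex preformed 30 min RT, then compounds (top 110 uM) 30 min RT, beads 20 min dark.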", "values": [{"molecule": "C=CCn1c(C)cc(C(=O)COc2ccc(C)nc2[N+](=O)[O-])c1C", "Potency": "inconclusive: 89.1 µM [inhibitor, single point]"}, {"molecule": "Oc1ccc(N=Nc2ccc3c(c2)OCCO3)c2cccnc12", "Potency": "inconclusive: 8.91 µM [inhibitor, full curve]"}, {"molecule": "O=C(CSc1ccc(-c2ccco2)nn1)N1CCCCCC1", "Potency": "inconclusive: 89.1 µM [inhibitor, single point]"}, {"molecule": "O=C1CC(c2nnc(Cc3ccc(F)cc3Cl)o2)CN1c1ccccc1", "note": "(centres undefined)", "activity change, negative = inhibition": "inactive: -11.5%"}, {"molecule": "CC(C)(C)c1ccc(OCC(O)CN2CCN(c3ccccn3)CC2)cc1", "note": "(centres undefined)", "Potency": "inconclusive: 50.1 µM [inhibitor, partial curve]"}, {"molecule": "O=C(CN1C(=O)COc2ccc(S(=O)(=O)N3CCCC3)cc21)N1CCN(c2ccc(F)cc2)CC1", "Potency": "inconclusive: 79.4 µM [inhibitor, single point]"}, {"molecule": "Cc1cc(C)cc(NC(=S)N(Cc2ccc(Cl)cc2)Cc2ccc(C(=O)O)cc2)c1", "Potency": "inconclusive: 89.1 µM [inhibitor, single point]"}, {"molecule": "CCc1ccc(NC(=O)CCn2cccc2)cc1", "Potency": "inconclusive: 70.8 µM [inhibitor, single point]"}, {"molecule": "CN(C)c1ccc(CNC(=O)CN2C(=O)COc3ccc(S(=O)(=O)N4CCCC4)cc32)cc1", "Potency": "inconclusive: 79.4 µM [inhibitor, single point]"}, {"molecule": "COc1ccc(OC)c(NC(=O)C2CCN(S(=O)(=O)c3ccc4c(c3)CCCC(=O)N4)CC2)c1", "activity change, negative = inhibition": "inactive: 0.497% [at 57.1 µM]"}, {"molecule": "CC1CCC(C(C)C)C(OC(=O)CSc2nccc(=O)[nH]2)C1", "note": "(centres undefined)", "activity change, negative = inhibition": "inactive: -2.11%"}, {"molecule": "COC(=O)C1=C(C)N(CCCC(=O)O)C(=O)NC1c1cc2c(cc1[N+](=O)[O-])OCO2", "note": "(centres undefined)", "Potency": "inconclusive: 56.2 µM [inhibitor, partial curve]"}, {"molecule": "COc1ccc(/C=C2/C(=O)N=C(N)N2C)cc1OC", "activity change, negative = inhibition": "inactive: -0.263%"}, {"molecule": "Brc1cccc(-c2nnc(CN3CCN(c4ccccn4)CC3)o2)c1", "activity change, negative = inhibition": "inactive: -0.102%"}, {"molecule": "CC(=O)Nc1nc2n(n1)C(c1ccc(F)cc1)C=C(c1ccccc1)N2", "note": "(centres undefined)", "Potency": "active: 22.4 µM"}, {"molecule": "O=C1c2ccccc2C(=O)N1CCCn1ccnc1", "Potency": "inconclusive: 89.1 µM [inhibitor, single point]"}, {"molecule": "CN(C)c1ccc(CNC(=O)c2cnc3sc(N4CCOCC4)nn3c2=O)cc1", "Potency": "inconclusive: 89.1 µM [inhibitor, single point]"}, {"molecule": "Cc1ccc(NC(=O)/C(C#N)=N/Nc2ccc(C(=O)O)cc2)c(C)c1", "activity change, negative = inhibition": "inactive: -15.8%"}, {"molecule": "COc1ccc(-c2ncccc2OC(=O)C23CC4CC(CC(C4)C2)C3)cc1", "Potency": "inconclusive: 89.1 µM [inhibitor, single point]"}, {"molecule": "Cc1nc(SCC(=O)NC(=O)NCCC(C)C)c2c(-c3cccs3)csc2n1", "activity change, negative = inhibition": "inactive: -24%"}, {"molecule": "Cc1nn(-c2ccccc2Cl)c(Cl)c1/C=N/Nc1cccc(C(=O)O)c1", "Potency": "inconclusive: 89.1 µM [inhibitor, single point]"}, {"molecule": "COC(=O)c1ccc(N)c(N=CC2=C(O)CC(C)(C)CC2=O)c1", "Potency": "inconclusive: 89.1 µM [inhibitor, single point]"}, {"molecule": "OCCCn1c(-c2ccccc2)csc1=Nc1ccccc1", "Potency": "active: 56.2 µM"}, {"molecule": "Cc1ccc(SCC(=O)OCC(=O)N(CC(C)C)C2CCS(=O)(=O)C2)cc1C", "note": "(centres undefined)", "activity change, negative = inhibition": "inactive: 4.79%"}, {"molecule": "CC(=O)Nc1ccc(NC(=O)c2cc3sccc3n2Cc2ccc(F)cc2)cc1", "activity change, negative = inhibition": "inactive: -11.3%"}, {"molecule": "Cc1ccccc1C(=O)NC(=S)Nc1ccccc1[N+](=O)[O-]", "Potency": "inconclusive: 35.5 µM [inhibitor, partial curve]"}, {"molecule": "O=C(NCCCO)c1ccc2nc(-c3ccco3)c(-c3ccco3)nc2c1", "Potency": "active: 50.1 µM"}, {"molecule": "COc1cccc(C2c3c(-c4ccccc4O)n[nH]c3C(=O)N2Cc2ccco2)c1", "note": "(centres undefined)", "Potency": "inconclusive: 44.7 µM [inhibitor, partial curve]"}, {"molecule": "O=C1CCCCC/C1=N/Nc1ccc(OCc2ccccc2)cc1", "Potency": "inconclusive: 44.7 µM [inhibitor, partial curve]"}, {"molecule": "COc1ccc(N=Nc2c(C)[nH][nH]c2=O)cc1", "Potency": "active: 56.2 µM"}, {"molecule": "O=C1C(Cc2ccccc2O)NC(=S)N1c1ccccc1", "note": "(centres undefined)", "activity change, negative = inhibition": "inactive: -0.121%"}, {"molecule": "Cc1cccc2sc(N(Cc3cccnc3)C(=O)c3cccs3)nc12", "activity change, negative = inhibition": "inactive: 9.65%"}, {"molecule": "Cc1cc(OC(=O)c2ccc(S(=O)(=O)N3CCCCC3)cc2)c([N+](=O)[O-])c(=O)[nH]1", "Potency": "inconclusive: 79.4 µM [inhibitor, partial curve]"}, {"molecule": "Cc1ccc(S(=O)(=O)N(C)C)cc1NC(=O)COC(=O)CN1C(=O)c2ccccc2C1=O", "activity change, negative = inhibition": "inactive: -2.59%"}, {"molecule": "O=C(O)c1ccc(CSCc2c(F)cccc2Cl)o1", "Potency": "inconclusive: 89.1 µM [inhibitor, single point]"}, {"molecule": "COc1ccccc1NC(=O)c1sc2nc(C)c(C(=O)Nc3ccc(C)cc3C)c(-c3cccs3)c2c1N", "activity change, negative = inhibition": "inactive: 2.06%"}, {"molecule": "Cc1cc(C)n(-c2ccc(C(=O)O)cc2)n1", "activity change, negative = inhibition": "inactive: 5.96%"}, {"molecule": "CCn1c(SCC(=O)N/N=C/C=C/c2ccco2)nc2ccccc21", "Potency": "active: 44.7 µM"}, {"molecule": "COC(=O)C1=C(C)N(c2cccc3ccccc23)C(=O)C1", "Potency": "inconclusive: 79.4 µM [inhibitor, single point]"}, {"molecule": "CCCCCCCC(=O)OC(CN1CCCCC1)CN1CCCC1=O", "note": "(centres undefined)", "activity change, negative = inhibition": "inactive: -0.191%"}, {"molecule": "Cc1c(C)n2c3c(cccc13)CC2", "activity change, negative = inhibition": "inactive: 15.4%"}, {"molecule": "Cc1sc(NC(=O)C2C3CCC(O3)C2C(=O)O)nc1-c1ccc(CC(C)C)cc1", "note": "(centres undefined)", "Potency": "inconclusive: 89.1 µM [inhibitor, single point]"}, {"molecule": "COC(=O)c1ccc(/C=C2\\SC(=S)N(CCCC(=O)NCCCN3CCOCC3)C2=O)cc1", "Potency": "inconclusive: 70.8 µM [inhibitor, single point]"}, {"molecule": "COc1ccc(OCc2nnc(SCC(=O)N3CCCc4ccccc43)n2-c2ccc(C)cc2)cc1", "activity change, negative = inhibition": "inactive: -33%"}, {"molecule": "CCN=c1scc(C)n1/N=C/c1cc(Br)c(O)c(Br)c1", "Potency": "active: 44.7 µM"}, {"molecule": "CCN1CCN(C(=S)NCC2CCCO2)CC1", "note": "(centres undefined)", "Potency": "active: 50.1 µM"}, {"molecule": "N#Cc1ccccc1Cn1c(=O)n(-c2cccc(C(F)(F)F)c2)c(=O)c2sccc21", "activity change, negative = inhibition": "inactive: 1.59%"}, {"molecule": "O=C(C1CCCN(CCCc2ccccc2)C1)N1CCCCCC1", "note": "(centres undefined)", "Potency": "inconclusive: 100 µM [inhibitor, single point]"}, {"molecule": "COc1ccc(S(=O)(=O)NCC(c2ccco2)N2CCN(c3ccccc3)CC2)cc1OC", "note": "(centres undefined)", "Potency": "inconclusive: 79.4 µM [inhibitor, single point]"}]}]}
